Hit rate of the full screen: of about 71,000 compounds, about 1,800 (2.5%) were called active. This list was built around the results that the source calls inconclusive (neither active nor inactive); the mix of calls is not that of the screen. Calls follow the shape of the dose curve; as a rule, active = well fitted activation curve with a large enough effect in the signal ratio, with a control signal flat (not every such curve was filed as active); inconclusive = small, poorly fitted or top-dose-only effect, or effect the other way, or a change in a side signal; inactive = flat fitted curve, though single readings scatter; the % refers to the signal ratio. Potencies of inconclusive entries are doubtful fits and often do not repeat.
Assay: Cell signaling CRE-BLA (Fsk stim); as to activity change, negative = inhibition: % of control where 0% means no effect
Settings: CHO CRE-bla reporter (cAMP response element driving beta-lactamase), forskolin EC10, beta-lactamase ratio; activity change, negative = inhibition: at 38.2 µM (top of the series) unless noted
Procedure, shortened: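 Reporter-gene assay: CHO cells with beta-lactamase behind cAMP responsive elements, co-treated with compound and EC10 NKH 477 for 3 hours at 37 degrees Celsius. Activity came from the 460/530 nm CCF4 emission ratio.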
Potency is read from the fitted curve at half-maximal effect; tags tell the direction and shape of the fitted curve.

Row | Compound | Potency | activity change, negative = inhibition
1 | CC(NC(=O)c1nn(C)c(=O)c2ccccc12)c1ccc(F)cc1 (centres undefined) | inconclusive: 15.8 µM [rising, single point] | –
2 | O=C(NCCc1cccc(Cl)c1)c1cccnc1 | – | inactive: -2.1%
3 | O=C(NCCc1c[nH]c2ccccc12)c1cccnc1 | inconclusive: 5.01 µM [rising, single point] | –
4 | COc1ccc(C2C(C(=O)NCCN(C)C)c3ccccc3C(=O)N2C)cc1OC (centres undefined) | – | inconclusive: 8.89%
5 | Cc1ccc(NC(=O)CN(C)S(=O)(=O)c2cccs2)cc1F | – | inconclusive: -10.9%
6 | Cc1c(C(=O)N2CCc3ccccc32)oc2c1C(=O)CC(C)(C)C2 | – | inconclusive: -2.85%
7 | CCn1cc(C(=O)OCc2ccc(F)cc2)c(=O)c2ccc(C)nc21 | active: 12.6 µM | –
8 | Cc1nnc2ccc(N3CCN(c4cccc(C(F)(F)F)c4)CC3)nn12 | – | inconclusive: -20.5%
9 | COc1ccc2c(CC(=O)Nc3nnc(C4CC4)s3)coc2c1 | inconclusive: 25.1 µM [rising, single point] | –
10 | COC(=O)c1ccc(CSc2nc3ccccc3c(=O)n2-c2ccc(OC)c(OC)c2)o1 | active: 12.6 µM | –
11 | CSc1nc(N2CCOCC2)c2c3c(sc2n1)CCC3 | inconclusive: 12.6 µM [rising, partial curve] | –
12 | CCOC(=O)C(CC)Sc1nc2c(c(=O)[nH]c(=O)n2C)n1CCc1ccccc1 (centres undefined) | – | inconclusive: 28.2%
13 | Cc1csc(NC(=O)CCn2c(=O)oc3ccccc32)n1 | – | inactive: -4.22%
14 | COc1cc(C(=O)NC2=NCCS2)ccc1OCc1c(C)noc1C | – | inconclusive: 24.5%
15 | CCC(=O)Nc1cc(-c2nn(C)c(=O)c3ccccc23)ccc1OC | active: 12.6 µM | –
16 | COc1cccc(-c2nnc(SCC(=O)N(C(C)C)C(C)C)o2)c1 | – | inactive: -0.356%
17 | c1ccc(-c2nc3ccccc3nc2N2CCOCC2)cc1 | inconclusive: 12.6 µM [rising, single point] | –
18 | COc1cccc(C(=O)Nc2cnc(NC(=O)c3ccco3)cc2C)c1 | – | inactive: -7.91%
19 | CC(C)(C)c1ccc(-c2conc2N)cc1 | inconclusive: 0.631 µM [rising, full curve] | –
20 | CC(=O)c1sc(NC(=O)C2(F)C(F)(F)C(F)(F)C(F)(F)C(F)(F)C2(F)F)nc1C | – | inactive: -14.8%
21 | CC(=O)c1c(C)cc(C)c(CSc2nc(C)cc(=O)[nH]2)c1C | inconclusive: 3.16 µM [rising, partial curve] | –
22 | Cc1cc(C)n(-c2nc3ccccc3c3nc(C)nn23)n1 | active: 10 µM | –
23 | CCCc1nc2oc3c(NCCN4CCOCC4)ncnc3c2c2c1CCCC2 | active: 0.794 µM | –
24 | c1ccc(-n2ncc3c(NCc4ccc5c(c4)OCO5)ncnc32)cc1 | inconclusive: 3.16 µM [rising, partial curve] | –

From PubChem BioAssay AID662 (National Center for Advancing Translational Sciences (NCATS), 2007)
